Experimental data from PubChem BioAssay AID488969 (Vanderbilt High Throughput Screening Facility, 2010).
The full ranking holds about 110,000 compounds; the median of “z-score” is about -0.1, and the highest 2% start at about 2. Some of the results follow.

target: Metabotropic glutamate receptor 8 (Rattus norvegicus) (UniProt P70579); test: rat mGluR8 modulators via GIRK flux, primary screen, cell-based, thallium flux, HTS (AID 488969); conditions: HEK293 rat mGluR8, GIRK (G protein-gated inwardly rectifying potassium channel) thallium flux, FluoZin2; at 10 µM; stronger effect = higher value; submaximal glutamate (EC20) added with thallium
Sequence of UniProt P70579 (P70579 whole entry, looked up): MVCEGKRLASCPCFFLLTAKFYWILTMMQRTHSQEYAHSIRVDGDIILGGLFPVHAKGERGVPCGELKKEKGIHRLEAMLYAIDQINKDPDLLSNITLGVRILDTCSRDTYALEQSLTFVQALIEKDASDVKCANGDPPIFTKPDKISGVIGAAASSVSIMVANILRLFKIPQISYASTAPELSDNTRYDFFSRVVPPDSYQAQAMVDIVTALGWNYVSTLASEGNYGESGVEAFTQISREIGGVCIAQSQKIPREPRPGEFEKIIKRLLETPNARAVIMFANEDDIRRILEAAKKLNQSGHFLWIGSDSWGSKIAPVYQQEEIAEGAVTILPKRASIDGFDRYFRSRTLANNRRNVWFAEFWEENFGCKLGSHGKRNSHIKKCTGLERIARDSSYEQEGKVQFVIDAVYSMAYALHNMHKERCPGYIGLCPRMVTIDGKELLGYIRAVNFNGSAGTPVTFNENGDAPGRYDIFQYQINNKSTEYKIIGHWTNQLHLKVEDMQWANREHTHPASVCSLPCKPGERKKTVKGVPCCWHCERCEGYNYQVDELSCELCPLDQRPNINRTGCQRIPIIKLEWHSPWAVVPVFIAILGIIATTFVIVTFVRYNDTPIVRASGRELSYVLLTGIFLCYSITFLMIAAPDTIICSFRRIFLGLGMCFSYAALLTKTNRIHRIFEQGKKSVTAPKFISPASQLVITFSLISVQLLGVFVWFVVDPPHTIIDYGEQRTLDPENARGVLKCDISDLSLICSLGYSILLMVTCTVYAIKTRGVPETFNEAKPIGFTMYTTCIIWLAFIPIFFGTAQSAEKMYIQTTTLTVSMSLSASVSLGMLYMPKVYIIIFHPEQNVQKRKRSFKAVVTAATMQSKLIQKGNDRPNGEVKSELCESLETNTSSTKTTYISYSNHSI

| Compound | z-score |
| --- | --- |
| CC(C)(C)NS(=O)(=O)CC12CCC(CC1=O)C2(C)C (stereo not drawn) | -0.31 |
| O=C(CSc1nnc(SCc2ccccc2)s1)N/N=C/C=C/c1ccccc1[N+](=O)[O-] | -0.139 |
| Cn1c(SCC(=O)N=Nc2c(O)[nH]c3ccccc23)nc2ccccc21 | -0.917 |
| O=C(NCc1ccco1)c1cc(-c2ccccc2)on1 | 0.425 |
| O=C(Nc1ccccc1-c1ccccc1)C(c1ccccc1)c1ccccc1 | -0.166 |
| CCN(CC)C(=O)CSc1nnc(-c2ccncc2)n1N | 0.408 |
| N/C(Cc1cccs1)=N\OC(=O)COc1ccccc1Cl | -2.93 |
| CCN(CC)S(=O)(=O)c1ccc(C(=O)OCC(=O)Nc2sc3c(c2C#N)CCCCC3)cc1 | -0.159 |
| CCCOc1ccc(C2NC(=O)NC(c3ccccc3)=C2C(C)=O)cc1OCC (stereo not drawn) | -0.631 |
| CC1CCCN(C(=O)N2c3ccccc3Sc3ccccc32)C1 (stereo not drawn) | -0.291 |
| O=C(Nc1ccncc1)c1ccccc1F | 0.631 |
| CCSc1nc2c(c(=O)n1-c1ccc(F)cc1)SCC2 | -0.944 |
| CN(C)c1ccc(C(=O)Nc2nc3c(s2)CCCC3)cc1 | 0.874 |
| COc1ccccc1NC(=S)N1CCOCC1 | -0.186 |
| O=C(Cc1nc2ccccc2[nH]1)N/N=C/c1ccccc1 | -0.00943 |
| COc1ccc(-c2c(NC(C)=O)n(C)c3ccccc3c2=O)cc1 | -0.198 |
| CCOC(=O)N1CCC(NC(=O)c2ccc(NC(=O)C3CCCO3)cc2)CC1 (stereo not drawn) | 0.0351 |

| Compound | z-score |
| --- | --- |
| O=C(NCc1ccccc1)c1cc(-c2ccco2)on1 | -0.269 |
| Cc1ccc(SCC(=O)NCCSCc2ccccc2)cc1 | -0.401 |
| CCOc1ccc(/C=C2\SC(N3CCc4ccccc4C3)=NC2=O)cc1 | -0.1 |
| COc1ccc(C(C)N2CC34C=CC(O3)C(C(=O)O)C4C2=O)cc1 (stereo not drawn) | 0.302 |
| COc1ccc(N2C(=O)CN=C2Nc2nc(C)cc(C)n2)cc1 | 0.953 |
| Cc1ccc(NC(=O)c2cc(-c3ccco3)on2)cc1C | 0.266 |
| Cc1ccc(Nc2cc(C)nc(-c3ccccc3O)n2)cc1 | -1.47 |
| COC(=O)c1c(NC(=O)C2SC(=NC3CCCCC3)C(C(N)=O)=C2N)sc2c1CCCC2 (stereo not drawn) | 0.402 |
| CC(C)(C)c1ccc2c(c1)C(=O)c1ccccc1C2=O | -0.283 |
| Cc1csc(NC(=O)Nc2cccc(Cl)c2)n1 | 0.398 |
| O=C(CC(=O)Nc1ccc(Cl)c(Cl)c1)N/N=C/c1ccc(O)cc1 | -0.913 |
| O=C1c2ccccc2-c2nc3ccccc3n21 | -1.14 |
| COc1ccc(CCNC(=O)c2n[nH]c(=O)c3ccccc23)cc1 | 0.669 |
| Cc1cc(C)cc(NC(=O)CN(C)S(=O)(=O)c2cccc3nsnc23)c1 | -0.384 |
| CC(C(=O)Nc1ccc(F)c(F)c1F)N1CCCCCC1 (stereo not drawn) | 1.62 |
| CCOc1ccc(-c2nn3c(-c4ccc(F)cc4)nnc3s2)cc1 | -0.355 |
